# PubChem BioAssay (NCATS)
# This is one part of the list. Further columns of the screen follow, without active or inactive calls. Most of these compounds were active or inconclusive in the main read-out, so they are no random draw. The note in brackets gives the kind of curve behind each potency; many fits are weak.
# Assay: qHTS Assay for Lipid Storage Modulators (AID 1519)
# Details: Drosophila S3 cells, BODIPY lipid droplet/cell ratio, laser cytometry, cells loaded with oleic acid
# How it was run: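 Cells seeded at 5,000 per well were treated with compounds over a concentration series and loaded with oleic acid (400 uM, as added). Lipid droplet fluorescence (488 nm excitation, 500-530 nm channel) was read by laser-scanning cytometry and normalized to 20 uM Triacsin C.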
# [1] = measured here: cell count channel max response
# [2] = measured here: cell number channel AC50
# [3] = measured here: lipid (BODIPY) channel AC50
# [4] = measured here: lipid channel max response
# Tags tell the direction and shape of the fitted curve.
Compound,max response [1],AC50 [2],AC50 [3],max response [4]
Cc1cnc(CNc2cc(-c3ccc(N(C)C)cc3)ncn2)cn1,27.7%,"0.562 µM [rising, full curve, poor fit]","0.562 µM [rising, full curve, poor fit]",29.7%
CC(=O)N1CCC2(CC1)CCN(C(=O)Nc1cccc(C#N)c1)CC2,20%,"0.00562 µM [rising, full curve, poor fit]","0.00562 µM [rising, full curve, poor fit]",24.5%
COc1ccccc1CNc1cc(-c2ccccc2Cl)ncn1,21.5%,"6.31 µM [rising, single point]","3.16 µM [rising, full curve, poor fit]",23.8%
Cc1noc(C)c1-c1nccc(NCCN2CCOCC2)n1,34.2%,"12.6 µM [rising, partial curve]","11.2 µM [rising, partial curve, poor fit]",38.9%
COc1ccc(C2CNC(=O)C2)cc1OC1CCCC1 (stereo not drawn),70.4%,"39.8 µM [rising, partial curve, poor fit]","39.8 µM [rising, partial curve, poor fit]",71.7%
COc1cc(C(O)C(=O)O)ccc1O (stereo not drawn),55.8%,"39.8 µM [rising, single point]","44.7 µM [rising, single point]",59.2%
c1cncc(-c2nc(N3CCNCC3)c3ccccc3n2)c1,32.9%,"1.58 µM [rising, full curve, poor fit]","1.58 µM [rising, full curve, poor fit]",42.1%
O=C(O)c1cc(=O)c2c(Cl)cc(Cl)cc2[nH]1,5.16%,"15.8 µM [rising, single point]","15.8 µM [rising, single point]",5.56%
Cc1c(-c2ccc(O)cc2)nn(-c2ccc(O)cc2)c1-c1ccc(OCCN2CCCCC2)cc1,80.6%,"31.6 µM [rising, partial curve]","31.6 µM [rising, partial curve]",97.2%
COc1ccc2[nH]cc(CCNc3nc(-c4ccccc4OC)nc4ccccc34)c2c1,2.7%,"0.126 µM [rising, full curve, poor fit]","0.126 µM [rising, full curve, poor fit]",1.95%
COc1ccccc1N1CCN(CCN2C(=O)c3ccccc3C(C)(C)C2=O)CC1,88%,"7.08 µM [rising, partial curve]","12.6 µM [rising, partial curve]",114%
COc1cccc(-c2nc(NCCNC(C)=O)c3ccccc3n2)c1,27.2%,"0.891 µM [rising, full curve, poor fit]","0.794 µM [rising, full curve, poor fit]",32.8%
Cc1cnc(CNc2ncncc2-c2ccc(N(C)C)cc2)cn1,47.4%,"1.58 µM [rising, full curve]","1.58 µM [rising, full curve]",57%
CN(C)c1ncc2nc(-c3ccc(Cl)cc3)c(=O)n(Cc3ccc(F)cc3)c2n1,38.1%,"3.16 µM [rising, full curve]","2.82 µM [rising, full curve]",45.7%
COc1ccc(-n2c(=O)c(-c3cccc(Cl)c3)nc3cncnc32)cc1,45.5%,"0.178 µM [rising, full curve]","0.112 µM [rising, full curve]",50.6%
COc1ccc(-c2nc3cnc(N(C)C)nc3n(Cc3cccs3)c2=O)cc1,39%,"17.8 µM [rising, partial curve, poor fit]","17.8 µM [rising, partial curve, poor fit]",43.7%
CN(Cc1ccco1)c1ncnc2ccc(-c3ccoc3)cc12,26.3%,"3.55 µM [rising, partial curve]","3.55 µM [rising, partial curve]",20.1%
